# Experimental data taken from PubChem BioAssay AID651568 (National Center for Advancing Translational Sciences (NCATS), 2012).
# The campaign covered roughly 1,200 compounds. About 55 (5%) were called active. Another 15% or so got no clear call; they are omitted. Calls come from the whole dose curve; as a rule, active = well fitted inhibition curve with a large enough effect; inconclusive = small, poorly fitted or top-dose-only effect; inactive = no such curve, though single readings can be large or run the other way. This is one part of the list.
# Assay: qHTS Assay to Find Inhibitors of Chronic Active B-Cell Receptor Signaling: Hit Validation in Renilla Reporter Assay; note: nearly all actives have a fitted effect of over 70% in size
# Conditions: TMD8 IkB-Renilla luciferase reporter, NF-kB signaling; series mostly up to 57.5 µM; activity change, negative = inhibition: at the top concentration
# Source text: Diffuse large B-cell lymphoma (DLBCL) is the most common category of non-Hodgkin lymphoma, with ~20,000 new cases per year in the United States. DLBCL should be regarded as a collection of different neoplasms. Microarray gene expression analysis has defined two principal types of DLBCL, named for their similarity to normal B cell stages or activation states: a germinal center B-cell (GCB) type, and an activated B-cell (ABC) type. In ABC-DLBCL, a constitutive high-level activity of the NF-kappaB family of transcription factors has been observed (1) and NF-kappaB target genes are more highly expressed in ABC primary tumors than in GCB tumors. Functional studies have shown a constitutive high-level activity of the IkappaB (inhibitor of kappa-B) kinase (IKK) complex. […] Further analysis of DLBCL primary tumors for NF-kappaB target gene expression imply that although CARD11 is required for constitutive IKK activity in all ABC-DLBCL lines, mutations in CARD11 may be the root cause of IKK activation only in lines or tumors with such mutations. In other words, CARD11 mutations may explain NF-kappaB activation in only 10% of ABC-DLBCL cases. […] This process has been termed 'chronic active BCR signaling' (CABS). The goal of this screen is to find small-molecule inhibitors of the CABS pathway found in ABC-DLBCL lines using a cell-based assay that measures IkappaBalpa stability, which has already been extensively validated in the OCI-Ly3 line (PubChem AID:445; REF: 4). […] Hits from the primary screen were tested in this orthogonal secondary assay. NIH Molecular Libraries Probe Production Network [MLPCN] NIH Chemical Genomics Center [NCGC] MLPCN Grant: R03 DA031086 PI Name: Dr. R. Eric Davis
# The IkB-Photinus/Renilla reporter assay differs from the primary assay in that the reporters are constitutively expressed, and based on luciferases that are different from the click beetle luciferases and each other. These differences should help to eliminate artifactual sources of activity specific to the primary assay. This assay uses the Dual-Glo substrate from Promega; extensively validated in a 96-well format, it could be converted to a smaller-well format. All lines needed for the IkB-Photinus/Renilla assay have already been prepared and extensively validated
# % is set by controls: 0 for no effect and ±100 for the full control effect.
row,SMILES,"activity change, negative = inhibition"
1,COc1cccc(/C=N/NC(=S)Nc2cccc(S(=O)(=O)N(C)C)c2)c1,inactive: 17.9%
2,Cc1ccc(C)c(/C=N/NC(=S)NC(C)C)c1,inactive: -0.524%
3,CCOc1ccc(S(=O)(=O)Nc2ccc3oc(C)c(C(=O)OCCOC)c3c2)cc1,inactive: 9.42%
4,CCCc1oc2ccc(NS(=O)(=O)c3ccc(OC)cc3)cc2c1C(=O)OCC,inactive: -26.6%
5,COc1cc(-c2noc(C)c2-c2ccc(N(C)C)nc2)cc(OC)c1OC,inactive: -28.4%
6,Cc1cc(C(=O)OCC(=O)Nc2c(Cl)cccc2Cl)c(C)o1,inactive: 2.16%
7,CCc1ccc(CNC(=O)Cc2ccc(NC(=O)C3=C(C)OCCS3)cc2)cc1,inactive: 0.25%
8,CCOC(=O)C1=C(COC(=O)/C=C/c2ccc(O)c(OC)c2)NC(=O)NC1C (configuration not stated),inactive: -15%
9,COc1cccc(C(=O)Nc2cc(NC(=O)c3cccs3)ccc2C)c1OC,inactive: 12.1%
10,COc1cc(CC(=O)OCC(=O)c2ccc3c(c2)OCCO3)cc(OC)c1OC,inactive: -4.05%
11,CCOc1ccccc1NC(=O)Cn1nnc(C(=O)NCc2cccs2)c1N,inactive: -8.82%
12,C=CCSc1nc(C)cc2c1C(=O)OC2,inactive: -3.05%
13,c1ccc2c(CSc3ncnc4nc[nH]c34)cccc2c1,inactive: -5.76%
14,CCOCCCNC(=O)c1ccc2c(c1)N=C(CC)c1cc(Br)ccc1S2,inactive: -0.63%
15,CCc1ccc(CCC(=O)Nc2sc3c(c2C#N)CCCC3)o1,inactive: -12.7%
16,O=C(CSc1nnnn1-c1ccccc1)Nc1nsc(-c2ccc(Cl)cc2)n1,inactive: -1.99%
17,COc1ccccc1C1C2=C(COC2=O)Nc2cc3c(cc21)OCO3 (configuration not stated),inactive: -27.1%
18,Cc1cc(C)cc(N2CC(O)=C(c3nc4ccccc4c(=O)[nH]3)C2=N)c1,inactive: -4.94%
19,COc1ccc(/C=C/C(=O)Nc2ccc(-n3nncc3-c3ccc(OC)c(OC)c3)cc2)cc1OC,inactive: -16.2%
20,CCOC(=O)c1c(C)n(C)c2ccc(OC)c(NC(=O)CN3CCC4(CC3)OCCO4)c12,inactive: 0.686%
21,CCc1cc2c(SCC(=O)NC3CC3)ncnc2s1,inactive: -3.97%
22,S=c1nn[nH]n1C12CC3CC(CC(C3)C1)C2,inactive: -6.62%
23,CCC(=C/c1sc2ccc3ccccc3c2[n+]1C)/C=C1\Sc2ccc3ccccc3c2N1C,inactive: -21.8%
24,CCOC(=O)C1=C(O)/C(=C/c2ccc(OCC(=O)O)c(OCC)c2)SC1=Nc1ccccc1,inactive: -13%
25,C=CCN(CC=C)C(=S)NC(=O)c1ccc(OC)cc1,inactive: 2.46%
26,COc1ccccc1OCCCN1C(=O)C(=O)c2cccc(C)c21,inactive: -19.7%

row,SMILES,"activity change, negative = inhibition"
1,O=C(COc1ccc(-c2ccccc2)cc1)N1CCN(S(=O)(=O)Cc2ccccc2)CC1,inactive: -6.24%
2,COc1ccc(CC2(CO)CCN(Cc3cccc4nccnc34)CC2)cc1,inactive: -0.999%
3,Cc1c(CCC(=O)N2CCC(C(=O)O)CC2)c(=O)oc2cc3oc4c(c3cc12)CCCC4,inactive: -27.6%
4,COC(=O)c1ccc(Oc2cc(C)nc(-n3nc(C)cc3C)n2)cc1,inactive: -11%
5,Fc1ccc(/C=N/NC(=S)Nc2cccnc2)cc1,inactive: -11.2%
6,COc1ccc(C(=O)c2ccc(N(C)C)cc2)c2ccccc12,inactive: 19.5%
7,COc1ccccc1CNC(=O)CSC(=S)N1CCCC1,inactive: 1.74%
8,O=C(Nc1ncc(Cc2ccc(SC(F)F)cc2)s1)c1ccccc1,inactive: -0.639%
9,COc1cc(/C(C)=N/NC(=S)NC(C)C)cc(OC)c1OC,inactive: -7.98%
10,COc1ccc(NS(=O)(=O)c2cc(-c3cnc(C4CC4)o3)ccc2C)cc1,inactive: 31.4%
11,O=S1(=O)[C@H]2C[C@H](CO)O[C@@]2(CO)CN1Cc1ccc(-c2cccc(Cl)c2)cc1,inactive: -16.5%
12,CCOc1cc(C(=O)N/N=C/C(Br)=C/c2ccccc2)cc(OCC)c1OCC,inactive: 0.0301%
13,CCC1=Nc2cc(C(=O)NCCCOC(C)C)ccc2Sc2ccc(C)cc21,inactive: -27.5%
14,COc1ccc(-c2cnnn2-c2ccc(NC(=O)c3ccc(S(=O)(=O)N4CCCCC4)cc3)cc2)cc1OC,inactive: 9.05%
15,O=C(CSc1cccc[n+]1[O-])c1cc(Cl)ccc1Cl,inactive: -14%
16,O=C(NCC(=O)N1CCCC(C(F)(F)F)C1)c1ccc(Oc2ccccc2)cc1 (configuration not stated),inactive: 0.46%
17,COc1ccc(OC)c(-c2cc(C(=O)Nc3c(C)nn(Cc4ccccc4)c3C)no2)c1,inactive: 0.953%
18,CCOC(=O)c1[nH]c(C)c(C(=O)OCC)c1C,inactive: -18.6%
19,COc1cc(NC(=O)c2cc(C(C)C)on2)cc(OC)c1OC,inactive: 3.91%
20,COc1ccc(COc2cc(-c3cccc(OC)c3)nc3ccc(N)cc23)cc1,inactive: -1.86%
21,Cc1ccc(S(=O)(=O)N2CCCCC2CCNC(=O)C(=O)NCc2ccccc2)cc1 (configuration not stated),inactive: 5.15%
22,Cc1cc(Cl)ccc1OCCCC(=O)NO,inactive: -13.8%
23,COc1ccc(N/C=C/C(=O)c2cc(OC)c(OC)c(OC)c2)cc1,inactive: -2.15%
24,Cn1nc(C(F)(F)F)c(/C=N/OC(=O)c2ccccc2)c1Sc1ccc(Cl)cc1,inactive: -8.27%
25,Cc1ccccc1NC(=S)N=Nc1c(O)n(C)c2ccc(S(=O)(=O)N3CCOCC3)cc12,inactive: -22.4%
26,C=CCNC(=S)NN=C1CCCCCCC1,inactive: -1.11%
